In the supplement of paper PMC10126150 one finds switch fluorescence ratio data, which are given here for 67 sequences.

Sequences with one replicate were seen in a single cluster, so their values are uncertain.

This series relates to ATP. The series is described as follows: switch fluorescence ratio, 500 uM ATP over buffer (Cy3 cluster intensity, sum of 5 cycles each) (fold (ratio)); higher = stronger signal-on switching upon ATP binding; sequences stand for … in TCGTCGGCAGCGTCAGATGTGTATAAGAGACAGTTTTTTTTTTTTTTTTTTTTTTTTT…TC. The conditions noted are these: aptamer strand: ATP DNA aptamer (quencher-CACCTGGGGGAGTATTGCGGAGGAAGG + anchor), 100 nM annealed; ATP concentration: 500 uM; one replicate. The essentials:
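For every switch-domain sequence, the fluorescence ratio is the mean of per-cluster values, each being summed target-cycle Cy3 intensity over summed buffer-cycle Cy3 intensity. Clusters outside 100-1000 RFU were excluded. On a modified Illumina MiSeq flow-cell, the Cy3-labelled switching-strand clusters were annealed to 100 nM quencher-labelled ATP aptamer, imaged in selection buffer and then after 15 min with 500 uM ATP at 22 °C. Five such cycles were run, with NaOH stripping and re-annealing between them.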
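Note: ATP exposure 15 min at 22 °C before imaging.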

For CCCTCCTTCG, the switch fluorescence ratio is 1.77.
GGGCGGCTTT: the switch fluorescence ratio worked out at 0.973.
The result for AAGTCGGGAG reads 1; that for TGTGGTACTT, 0.954; that for CTCATCGCTT, 1.12.
The result for TACATGATTC reads 0.976.
Next, TTAAGCGCTT: 0.985.
As for CCGTCAGATA, the switch fluorescence ratio was determined as 1.27.
For the sequence CTATTCTGCG, the switch fluorescence ratio is 0.983.
The result for TATAAAAAA reads 1.02; that for GGCTTAGG, 1.02.
The result for CCATTGATAG reads 1.02.
As to CTATCCGG, the switch fluorescence ratio is 1.02.
Next, ACGTGTCTGA: 1.03; AAAGATTAGC: 0.984; TGTTTTTGCG: 0.913.
For the sequence GAGCTATCTT, the switch fluorescence ratio was 1.02.
Take AGACATCGCT: the switch fluorescence ratio was found to be 0.972.
Next, GATTCCACTT: 1.05.
The result for CGCCTCAGTA reads 1.09; that for TGTTCAAGGT, 0.987; that for AGTTAATTA, 1.02.
Next, AACACGCTTC: 1.05; AATTACCATA: 1.05.
With ACGCAATGTG, the switch fluorescence ratio was determined as 1.44.
GTGGACGAAA: the switch fluorescence ratio turned out to be 1.05.
Consider AGCCTGGGAT, for which the switch fluorescence ratio stood at 0.996.
Next, AGGGTTACCA: 1.07; AAGATACGAC: 1.59; AGCGTAATCT: 1.05.
Next, TTACGAG: 1.03; AGTGACGGGA: 1.05; TTAGCTGTAA: 1.09.
The result for GGCTGTGGCA reads 0.994; that for GACCAAAGAT, 1.07; that for ACCTGTGCTG, 0.976.
Consider AATCTATCTC, for which the switch fluorescence ratio was 1.02.
Next, AACTTCGTGC: 0.984; AAACGGTTCC: 1.41; CGACTCCCCA: 1.17.
In the case of CTTAAGATAG, the switch fluorescence ratio amounted to 1.1.
Turning to CTGTACGGGA, the switch fluorescence ratio came out at 1.12.
The result for CTTGGGCAA reads 2.
The result for AGATAAAATA reads 1.
The result for AATGTATCGG reads 0.979; that for CTTTGGGATG, 1.03.
For GAGTTCGGCT, the switch fluorescence ratio worked out at 0.944.
The result for AGGTCGGCAG reads 0.996.
The result for AAGGTCTCGC reads 1.02; that for ATTTCGTTGA, 1; that for TTGCGCGACG, 0.975.
Next, CGCGAGCTTG: 1.02; TGGTGGAAGT: 0.991; CATGACAGGG: 1.01.
Consider AATAAAGGTG, for which the switch fluorescence ratio was determined as 1.24.
Next, GGATGAGACT: 0.979; GATAGCCAGG: 1.24.
Next, ATAAAATTAA: 0.977; TCGGTATGTA: 1.01; ATACACAGGC: 1.02.
In the case of GAGACGTGGT, the switch fluorescence ratio was 1.
With AAGGGATTCG, the switch fluorescence ratio was 1.05.
Next, CTCCCTTCAA: 1.28; CACGTGGTCC: 0.997.
Next, CAGACAACGC: 1.06; GTCGGCCCGA: 0.994; TTTAGACTGC: 0.948.
